# Assay results published in PubChem BioAssay AID1745853 (National Center for Advancing Translational Sciences (NCATS), 2022).
# The other results are listed elsewhere or left out. Shown are side measurements of this screen, not its main read-out; they come without a call.
# Assays:
# Assay in all cases: Primary Screen for Target Class Profiling of Small Molecule Inhibitors of Methyltransferases
# [1] = target: Glycine N-methyltransferase (Homo sapiens) (UniProt Q14749); details: purified enzyme, MTase-Glo SAH luminescence; measured here: GNMT inhibition; at 40 µM; stronger effect = lower value
# How it was run: (§1)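 Each enzyme was reacted with SAM and its substrate, with compounds tested once at 40 uM; SAH formed was read by MTase-Glo luminescence.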
# [2] = target: Guanidinoacetate N-methyltransferase (Homo sapiens) (UniProt Q14353); details: purified enzyme, MTase-Glo SAH luminescence; measured here: GAMT inhibition; at 40 µM; stronger effect = lower value
# How it was run: as §1
# [3] = target: Histamine N-methyltransferase (Homo sapiens) (UniProt P50135); details: purified enzyme, MTase-Glo SAH luminescence; measured here: HNMT inhibition; at 40 µM; stronger effect = lower value
# How it was run: as §1
# [4] = target: Nicotinamide N-methyltransferase (Homo sapiens) (UniProt P40261); details: purified enzyme, MTase-Glo SAH luminescence; measured here: NNMT inhibition; at 40 µM; stronger effect = lower value
# How it was run: as §1
# [5] = target: Phenylethanolamine N-methyltransferase (Homo sapiens) (UniProt P11086); details: purified enzyme, MTase-Glo SAH luminescence; measured here: PNMT inhibition; at 40 µM; stronger effect = lower value
# How it was run: as §1
# % is set by controls: 0 for no effect and ±100 for the full control effect.
Structure (SMILES),"activity change, negative = inhibition [1]","activity change, negative = inhibition [2]","activity change, negative = inhibition [3]","activity change, negative = inhibition [4]","activity change, negative = inhibition [5]"
O=C(c1cnc(N2CCOCC2)nc1)N1CCn2nc(C(O)C3CC3)cc2C1 (stereo not given),-4.87%,-7.09%,-1.46%,-9.44%,-7.59%
COc1cccc(CN2CCCC(O)(CNC3CCCCCCC3)C2=O)c1 (stereo not given),-4.82%,-3.78%,-2.54%,-3.82%,10%
Cc1ccc(NC2=N[C@H]3[C@@H](O)[C@H](O)C[C@H](C(=O)NCc4cccnc4)[C@H]3S2)cc1,-1.09%,-0.327%,-0.533%,0.278%,4.78%
CC1CCC(N2C(=O)c3ccc(-c4ccco4)n3CC2(C)C(=O)NC2CCCCCCC2)CC1 (stereo not given),-5.1%,0.86%,1.68%,-8.76%,-2.57%
CC(C)CCn1c(=O)c2ccccc2n2c(=O)n(CC(=O)Nc3ccc(F)cc3F)nc12,6.8%,0.13%,11.5%,2.5%,8.56%
O=C(Nc1nc2cccc(-c3ccc(CN4CCS(=O)(=O)CC4)cc3)n2n1)C1CC1,-2.06%,-0.383%,3.21%,-10.6%,-5.93%
Cc1ccc(NC(=O)N2CCN(c3nc(N)nc4sc(-c5cccnc5)nc34)CC2)cc1,-6.22%,14.9%,-0.475%,-5.2%,0.706%
CC1(C(=O)NC2CCCCC2)Cn2c(ccc2-c2ccccc2)C(=O)N1Cc1cccs1 (stereo not given),8.15%,0%,7.12%,-2.69%,4%
CCOc1ccc(CN2C(=O)c3cc4oc(C)cc4n3CC2(C)C(=O)NC2CCCCCCC2)cc1 (stereo not given),3.35%,-4.27%,8.92%,9.22%,1.63%
CCOC(=O)c1cc2n(n1)CC(C)(C(=O)NCCCOC)N(Cc1ccc3c(c1)OCO3)C2=O (stereo not given),-0.366%,0%,5.22%,1.31%,0.714%
CCOc1ccc(CNC(=O)C(C)n2ccc3cc(S(=O)(=O)N4CCCC4)ccc32)cc1 (stereo not given),2.7%,3.12%,-3.98%,-3.98%,-3.17%
CC1(C(=O)NC2CCCCC2)Cn2c(cc3sccc32)C(=O)N1Cc1ccc(F)cc1 (stereo not given),0.386%,2.52%,-3%,-0.821%,-2.87%
CC(C)c1cc(C(=O)N2CC[C@H](CO)[C@H](O)C2)cs1,-4.08%,-5.51%,-2.81%,-4.7%,-8.2%
C/C=C1\[C@H](O[C@@H]2O[C@H](CO)[C@@H](O)[C@H](O)[C@H]2O)OC=C(C(=O)OC)[C@H]1CC(=O)OC,0.884%,2.65%,9.02%,-13.5%,6.94%
CC(C)CCCC1CN(C(=O)CN2CCCC2=O)CCO1 (stereo not given),-1.33%,-15.9%,-1.17%,-9.99%,-5.43%
Cc1cc(C(=O)NC2CC(C)(C)Cc3nc(N4CCOCC4)ncc32)nn1C (stereo not given),-4.45%,-2.77%,-1.75%,-8.11%,-6.36%

Structure (SMILES),"activity change, negative = inhibition [1]","activity change, negative = inhibition [2]","activity change, negative = inhibition [3]","activity change, negative = inhibition [4]","activity change, negative = inhibition [5]"
Cn1c2c(c3ccccc31)C(C(=O)NCc1ccc(F)cc1)N(c1ccc(F)cc1)C(=O)CS2 (stereo not given),-0.797%,3.71%,7.4%,1.94%,3.05%
Cc1noc([C@H]2CCN(S(C)(=O)=O)C[C@H]2NC(=O)C2CC2)n1,-5.11%,-11.6%,-2.04%,-7.68%,-9.28%
O=C1CC2(CCN(CC3CCOCC3)C2)Nc2ccccc2N1 (stereo not given),-1.46%,-0.293%,1.51%,-1.12%,2.72%
Cc1cccc(N2C(=O)c3ccccc3CC2(C)C(=O)NCc2ccccc2C)c1 (stereo not given),1.81%,7.46%,3.95%,0.727%,4.69%
Cc1cccc(CNC(=O)C2(C)Cn3cnc(C(=O)N(C)Cc4ccccc4)c3C(=O)N2C2CC2)c1 (stereo not given),5.96%,0.67%,11%,5.54%,9.34%
CCCC(C)N1CC2(CCN(C(=O)c3cnn4c3CCCC4)CC2)OC1=O (stereo not given),-5.35%,-8.46%,-3.11%,-20.3%,-10.5%
CCC(C)NC(=O)c1ccc2c(=O)n(C(C)C)c3nn(CC(=O)Nc4cccc(F)c4)c(=O)n3c2c1 (stereo not given),0.768%,0.279%,-3.9%,-3.97%,-2.16%
NCCCCN=C(N)N,-0.817%,6.67%,-7.71%,-3.56%,8.46%
CC(C(=O)NCCc1ccccn1)C1CCOCC1 (stereo not given),-3.28%,-7.99%,-2.36%,-10.5%,-10.9%
CC(=O)Oc1ccccc1C(=O)O,1.89%,14.8%,5.97%,0.195%,13.6%
Cc1cc2c(cc3n2CC(C)(C(=O)NC2CCCCCCC2)N(CCN2CCOCC2)C3=O)o1 (stereo not given),4.4%,0.047%,8.92%,1.09%,5.88%
O=C(O)[C@H]1NCCC[C@H]1C(=O)O,10.5%,12.2%,12.9%,-4.82%,-0.529%
Cc1ccc(Cl)cc1NC(=O)CSc1nnc2n(CC(C)C)c(=O)c3ccccc3n12,-3.69%,-0.769%,2.36%,-7.96%,-3.43%
CC(=O)NCC(=O)N1c2ccccc2CC1c1nc(C(C)C)no1 (stereo not given),1.18%,-1.92%,-0.213%,-0.368%,0.054%
CCOc1ccc(Nc2nc3c(S(=O)(=O)c4ccccc4)nnn3c3ccccc23)cc1,-5.58%,3.45%,-3.74%,-8.72%,-5.09%
